Measured values as given in paper PMC6522510 (Nature Communications, 2019).
pEC50, pIC50: −log10 of the molar value. This is a selection; strong and weak results do not stand in their true shares.

How the values were obtained:
M07e [1] = test system: M07e; parameters: species or system AML cell lines (8); Primary HTS, single concentration about 10 uM, Cell Titer Glo viability; log10 luminescence, per cent inhibition relative to cycloheximide control; conditions: 72 h, relative to cycloheximide control, log10 luminescence; inhibitor
CMS [2] = test system: CMS; parameters: species or system AML cell lines (8); Primary HTS, single concentration about 10 uM, Cell Titer Glo viability; log10 luminescence, per cent inhibition relative to cycloheximide control; conditions: 72 h, relative to cycloheximide control, log10 luminescence; inhibitor
ML-2 = test system: ML-2; parameters: species or system AML cell lines (8); Primary HTS, single concentration about 10 uM, Cell Titer Glo viability; log10 luminescence, per cent inhibition relative to cycloheximide control; conditions: 72 h, relative to cycloheximide control, log10 luminescence; inhibitor
CMK [3] = test system: CMK; parameters: species or system AML cell lines (8); Primary HTS, single concentration about 10 uM, Cell Titer Glo viability; log10 luminescence, per cent inhibition relative to cycloheximide control; conditions: 72 h, relative to cycloheximide control, log10 luminescence; inhibitor
MV4-11 = test system: MV4-11; parameters: species or system AML cell lines (8); Primary HTS, single concentration about 10 uM, Cell Titer Glo viability; log10 luminescence, per cent inhibition relative to cycloheximide control; conditions: 72 h, relative to cycloheximide control, log10 luminescence; inhibitor
U937 = test system: U937; parameters: species or system AML cell lines (8); Primary HTS, single concentration about 10 uM, Cell Titer Glo viability; log10 luminescence, per cent inhibition relative to cycloheximide control; conditions: 72 h, relative to cycloheximide control, log10 luminescence; inhibitor
CHRF288-11 [4] = test system: CHRF288-11; parameters: species or system AML cell lines (8); Primary HTS, single concentration about 10 uM, Cell Titer Glo viability; log10 luminescence, per cent inhibition relative to cycloheximide control; conditions: 72 h, relative to cycloheximide control, log10 luminescence; inhibitor
MOLM-13 = test system: MOLM-13; parameters: species or system AML cell lines (8); Primary HTS, single concentration about 10 uM, Cell Titer Glo viability; log10 luminescence, per cent inhibition relative to cycloheximide control; conditions: 72 h, relative to cycloheximide control, log10 luminescence; inhibitor
CMK [5] = assay: cells
WSU = assay: cells; conditions: Homo sapiens, 72 h, read-out: IC50 (WSU)
M07e [6] = assay: cells
CMS [7] = type: cell-based; conditions: Homo sapiens; 72 h, Cell Titer Glo
M07e [8] = assay: Secondary dose-response HTS, Cell Titer Glo; type: cell-based; conditions: Homo sapiens, M-07e, secondary high-throughput screen, read-out: average effective concentration, M07e
CMY = assay: cells
CHRF288-11 [9] = type: cell-based; conditions: Homo sapiens; 72 h, Cell Titer Glo
M-MOK = assay: cells
CMS [10] = assay: Secondary dose-response HTS, Cell Titer Glo; type: cell-based; conditions: Homo sapiens, secondary high-throughput screen, read-out: average effective concentration, CMS

Compound | M07e %inh (M07e [1]) [%] | CMS %inh (CMS [2]) [%] | ML-2 %inh (ML-2) [%] | CMK %inh (CMK [3]) [%] | MV4-11 %inh (MV4-11) [%] | U937 %inh (U937) [%] | CHRF288-11 %inh (CHRF288-11 [4]) [%] | MOLM-13 %inh (MOLM-13) [%] | pIC50 (CMK [5]) | pIC50 (WSU) | pIC50 (M07e [6]) | pIC50 (CMS [7]) | pEC50 (M07e [8]) | pIC50 (CMY) | pIC50 (CHRF288-11 [9]) | pIC50 (M-MOK) | pEC50 (CMS [10])
O=C1Nc2ccc(-c3cccnc3)cc2/C1=C/c1ccc[nH]1 [JAK3 INHIBITOR VI] | 37.38 | 49.94 | 14.48 | 84.43 | 82.56 | 52.14 | 69.76 | 96.06 |  |  |  |  |  |  |  |  | 
Clc1ccc(CO/N=C(\Cn2ccnc2)c2ccc(Cl)cc2Cl)c(Cl)c1 [SJ000286195-3, OXICONAZOLE NITRATE] | 9.846 | 10.52 | 6.956 | 42.15 | 37.71 | 10.82 | 48.33 | 34.31 |  |  |  |  |  |  |  |  | 
C[C@@H]1CCN(C(=O)CC#N)C[C@@H]1N(C)c1ncnc2[nH]ccc12 [Tofacitinib, tofacitinib] |  |  |  |  |  |  |  |  | 6.70 | 7.38 | 6.69 | 6.43 | 5.48 | 7.15 | 5.92 | 7.32 | 6.38
